Experimental data taken from PubChem BioAssay AID485294 (National Center for Advancing Translational Sciences (NCATS), 2010).
Among all 370,000 compounds or so, about 150 (0.041%) were called active. This list was built around the results that the source calls inconclusive (neither active nor inactive); the mix of calls is not that of the screen. Calls come from the whole dose curve; as a rule, active = well fitted inhibition curve with a large enough effect; inconclusive = small, poorly fitted or top-dose-only effect; inactive = flat fitted curve, though single readings scatter. Potencies of inconclusive entries are left out as doubtful fits.

target: Beta-lactamase (Escherichia coli (strain K12)) (UniProt P00811); experiment: qHTS Inhibitors of AmpC Beta-Lactamase (assay with detergent); conditions: AmpC hydrolysis of nitrocefin, absorbance 480 nm, 0.01% Triton; activity change, negative = inhibition: at 114 µM (top of the series); note: nearly all actives have a fitted effect of over 25% in size;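 for activity change, negative = inhibition: 0% = no-compound wells and -100% = no-enzyme wells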
UniProt P00811, sequence (P00811 whole entry, looked up): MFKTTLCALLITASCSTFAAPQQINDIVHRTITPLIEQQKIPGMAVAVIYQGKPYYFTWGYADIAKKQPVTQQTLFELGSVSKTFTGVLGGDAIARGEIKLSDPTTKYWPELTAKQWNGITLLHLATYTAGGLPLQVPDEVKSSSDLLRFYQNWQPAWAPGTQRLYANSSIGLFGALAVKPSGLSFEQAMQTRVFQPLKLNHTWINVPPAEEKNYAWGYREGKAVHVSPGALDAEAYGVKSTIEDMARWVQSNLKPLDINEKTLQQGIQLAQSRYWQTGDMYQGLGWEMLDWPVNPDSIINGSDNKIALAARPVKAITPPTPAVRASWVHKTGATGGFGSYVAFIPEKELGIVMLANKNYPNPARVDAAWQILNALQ
Outline: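 20 mM phosphate pH 7.0 + 0.01% (detergent screen) or 0.0001% Triton X-100; 5.3 nM AmpC reagent; cpd preinc 15 min RT; nitrocefin (800 uM stock) to start; A480 q20 s × 4 min; Activity was normalised to no-enzyme and no-compound control wells.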
Potency is the fitted concentration of half-maximal effect; tags give direction and shape of the fitted curve.

SMILES	Potency	activity change, negative = inhibition
CC1=CC(=O)C=C(C)C1=NOc1ccc([N+](=O)[O-])cc1	inconclusive [inhibitor, partial curve]	–
CC(C)N(CC#CCC1(O)c2ccccc2-c2ccccc21)C(C)C	inconclusive [inhibitor, full curve, poor fit]	–
c1ccc(NC2=NCCN2CC2CCCC2)cc1	inconclusive [inhibitor, full curve, poor fit]	–
CCOC(=O)C1CCCN(Cc2nc(N)nc(Nc3ccccc3OC)n2)C1 (stereo unspecified)	inconclusive [inhibitor, full curve, poor fit]	–
CCS(=O)(=O)N1CCc2cc(C(=O)N3CCN(c4ccccc4)CC3)ccc21	–	inactive: 6.35%
CCOC(=O)c1noc2ncn(CC(=O)Nc3ccc(OC)c(Cl)c3)c(=O)c12	–	inactive: 29.4%
O=C(CCN1C(=O)/C(=C/c2ccccc2Cl)SC1=S)NCCc1ccc(O)cc1	inconclusive [inhibitor, single point]	–
COc1ccc2oc(C)c(C(N)=O)c2c1	–	inactive: -2.89%
CCN(CC)S(=O)(=O)c1ccc(C2CNC(=O)C2)cc1 (stereo unspecified)	inconclusive [inhibitor, full curve]	–
CC1CCN(C(=S)NC(=O)c2ccccc2)CC1	inconclusive [inhibitor, full curve, poor fit]	–
COc1ccc(NS(=O)(=O)c2ccc(O)c(C(=O)OCC(=O)Nc3ccc4c(c3)OCCO4)c2)cc1	inconclusive [inhibitor, partial curve]	–
O=C(O)CCCC(=O)Nc1cccc(-c2nc3ccccc3[nH]2)c1	inconclusive [inhibitor, full curve, poor fit]	–
N#Cc1cc(Sc2ccccn2)c(Sc2ccccn2)cc1C#N	inconclusive [inhibitor, full curve, poor fit]	–
COc1cccc(CNC(=O)c2cc(C3CC3)nc3c2cnn3C(C)C)c1	inconclusive [inhibitor, partial curve, poor fit]	–
O=C(COc1c(Cl)cccc1Cl)NN1C(=O)CSC1=S	inconclusive [inhibitor, full curve, poor fit]	–
COc1ccccc1N1CCN(Cc2ccc(Br)cc2)CC1	–	inactive: -12.8%
CC(C)c1ccc(NC(=O)C2CCN(c3ncnc4c3nc3n4CCCCC3)CC2)cc1	inconclusive [inhibitor, full curve, poor fit]	–
Nc1nnc(SCC(=O)Nc2ccc(S(=O)(=O)N3CCOCC3)cc2)s1	inconclusive [inhibitor, single point]	–
Cn1nc(NC(=O)C2CCC2C(=O)O)c2c(F)cccc21 (stereo unspecified)	–	inactive: -0.757%
COc1ccc(C)cc1NC(=O)c1ccc2c(c1)N(Cc1cccc(Cl)c1)C(=O)c1ccccc1S2=O (stereo unspecified)	–	inactive: 3.92%
c1ccc2c3c(ccc2c1)OCC1CONC31 (stereo unspecified)	inconclusive [inhibitor, full curve, poor fit]	–
NC(=O)c1ccsc1NC(=O)COC(=O)Cc1c[nH]c2ccccc12	inconclusive [inhibitor, partial curve, poor fit]	–

SMILES	Potency	activity change, negative = inhibition
OCCNC(=S)NC1CCCCC1	inconclusive [inhibitor, full curve]	–
COC(=O)CN(C)C1CC(=O)N(c2ccc(Cl)cc2)C1=O (stereo unspecified)	inconclusive [inhibitor, single point]	–
O=c1[nH]c2ccccc2n2c(-c3ccncc3)nnc12	inconclusive [inhibitor, partial curve]	–
Cc1cccc(C)c1N=Nc1c(C)cc(O)cc1C	inconclusive [inhibitor, partial curve]	–
O=C1OCC2=C1C(c1ccc(F)cc1)c1cc3c(cc1N2)OCO3 (stereo unspecified)	inconclusive [inhibitor, partial curve]	–
O=C(COC(=O)c1ccccc1Nc1ccc(SC(F)F)cc1)NC1CC1	inconclusive [inhibitor, partial curve, poor fit]	–
COC(=O)COc1cccc2c(=O)n(CC(=O)NCCc3ccc(OC)c(OC)c3)ccc12	inconclusive [inhibitor, partial curve, poor fit]	–
Cc1nn(Cc2ccc(C(=O)Nc3ccc(C(=O)OC(C)C)cc3)o2)c(C)c1Cl	inconclusive [inhibitor, single point]	–
CCOC(=O)c1cc(-c2ccccc2)n(CCC(=O)Nc2ccc(OC)c(Cl)c2)c1C	–	inactive: 3.11%
Cc1ccccc1NC(=O)N1CCN(c2ncccn2)CC1	–	inactive: -0.859%
COc1ccccc1NC(=O)Cc1noc(CSc2cccc[n+]2[O-])n1	inconclusive [inhibitor, single point]	–
Cc1ccccc1C(=O)NC(=S)NCc1cccnc1	–	inactive: 0.12%
O=C(Cn1c(=O)[nH]c2ccsc2c1=O)NC1CCCCCC1	inconclusive [inhibitor, partial curve, poor fit]	–
CC(=O)NC(Nc1c(C)n(C)n(-c2ccccc2)c1=O)C(Cl)(Cl)Cl (stereo unspecified)	inconclusive [inhibitor, full curve, poor fit]	–
CCCSCCCNC(=O)CC1Oc2ccccc2NC1=O (stereo unspecified)	inconclusive [inhibitor, partial curve, poor fit]	–
C=CCn1c(=N)n(CC(=O)OCC)c2ccccc21	inconclusive [inhibitor, full curve, poor fit]	–
CCOC(=O)N1CCN(c2cc(=O)n(-c3cccc(Br)c3)c(=O)[nH]2)CC1	inconclusive [inhibitor, partial curve, poor fit]	–
CC(C)CN1CCC(=O)N([C@H](COc2ccccc2)Cc2ccccc2)CC1	inconclusive [inhibitor, full curve, poor fit]	–
O=C(CN1NS(=O)(=O)c2ccccc2C1=O)Nc1ccccc1OC(F)F	inconclusive [inhibitor, partial curve, poor fit]	–
O=C(CS(=O)(=O)c1ccc(F)cc1)Nc1nnc(-c2ccccc2Cl)o1	inconclusive [inhibitor, full curve, poor fit]	–
O=C1NC(=S)NC(=O)C12C(c1ccccc1)NC(=S)NC2c1ccccc1 (stereo unspecified)	inconclusive [inhibitor, full curve, poor fit]	–
CN(C)CCNC(=O)Cc1ncc(C(F)(F)F)cc1Cl	inconclusive [inhibitor, partial curve]	–

SMILES	Potency	activity change, negative = inhibition
Cc1ccccc1C(=O)N1CCN(CCNC(=O)C(=O)Nc2ccc(Br)cc2)CC1	inconclusive [inhibitor, full curve]	–
CCOC(=O)N1CCC(N2CC34C=CC(O3)C(C(=O)Nc3ccc(F)cc3)C4C2=O)CC1 (stereo unspecified)	inconclusive [inhibitor, full curve, poor fit]	–
O=c1c2sc3ccccc3c2n(Cc2ccc(F)cc2)c(=O)n1Cc1ccccc1	–	inactive: -1.18%
Cc1ccc2c3c([nH]c2c1C)-c1nonc1CC3	inconclusive [inhibitor, full curve, poor fit]	–
COc1ccc(-c2nc(CS(=O)CC(=O)N3CCN(C)CC3)c(C)o2)cc1OC (stereo unspecified)	inconclusive [inhibitor, full curve, poor fit]	–
CCOC(=O)c1sc(NC(=O)CCSC)nc1C	inconclusive [inhibitor, partial curve, poor fit]	–
COCCCNCC(=O)Nc1ccc(OC(F)(F)F)cc1	inconclusive [inhibitor, partial curve, poor fit]	–
O=C(NCCCN1CCCC1=O)c1ccc2c(c1)NC(=O)c1ccccc1S2	inconclusive [inhibitor, full curve, poor fit]	–
c1ccc(NCn2cncn2)nc1	inconclusive [inhibitor, full curve, poor fit]	–
CC(C)(C)C(=O)NC1=NN(c2c(Cl)cc(Cl)cc2Cl)C(=O)C1	–	inactive: 2.41%
COc1cccc(CN(C)C(=O)c2[nH]c(C)c(C(C)=O)c2C)c1OC	–	inactive: -2.83%
CC(C)C(=O)NNC(=O)CSc1nc(C2CCCCC2)nc2ccccc12	–	inactive: -5%
CSCCC(Nc1ccc(S(=O)(=O)N2CCOCC2)cc1[N+](=O)[O-])C(=O)OCC(=O)NCC(C)C (stereo unspecified)	inconclusive [inhibitor, full curve]	–
O=P1(NCCCl)OCCCN1CCCl (stereo unspecified)	inconclusive [inhibitor, full curve, poor fit]	–
O=C(Nc1cccc2ccccc12)c1ccc(Cn2cc(Cl)cn2)cc1	inconclusive [inhibitor, full curve, poor fit]	–
CSc1nc(C)c(CCO)c(=O)[nH]1	inconclusive [inhibitor, partial curve, poor fit]	–
CCOC(=O)c1sc2ncn(C(C)C(=O)OC)c(=O)c2c1C (stereo unspecified)	inconclusive [inhibitor, full curve, poor fit]	–
O=C(Cn1cc(S(=O)(=O)c2ccc(F)cc2)c(=O)c2cc3c(cc21)OCO3)Nc1ccccc1	–	inactive: -1.22%
COc1ccccc1NC(=O)NC1(C(=O)N2CCCCCC2)CCCCC1	inconclusive [inhibitor, single point]	–
O=C(CCCCCn1c(=S)[nH]c2ccc(N3CCOCC3)cc2c1=O)NCc1ccc(Cl)cc1	inconclusive [inhibitor, single point]	–
CCCCCCCN(C(=O)CCl)c1ccccc1C	–	inactive: -14.5%
Cc1cccc(Cn2c(C)nc3c(N)c(C)c(C)cc32)c1	–	inactive: -13.9%
